# Measurements reported in the supplement of paper PMC3334620.
# Over roughly 33,000 sequences, “E-score (-0.5 to 0.5)” has its median near -0.016; the highest 2% begin near 0.32. Some of the results follow.
# Biological target: T1, Stp1 (UniProt B3LFK1)
# T1 sequence: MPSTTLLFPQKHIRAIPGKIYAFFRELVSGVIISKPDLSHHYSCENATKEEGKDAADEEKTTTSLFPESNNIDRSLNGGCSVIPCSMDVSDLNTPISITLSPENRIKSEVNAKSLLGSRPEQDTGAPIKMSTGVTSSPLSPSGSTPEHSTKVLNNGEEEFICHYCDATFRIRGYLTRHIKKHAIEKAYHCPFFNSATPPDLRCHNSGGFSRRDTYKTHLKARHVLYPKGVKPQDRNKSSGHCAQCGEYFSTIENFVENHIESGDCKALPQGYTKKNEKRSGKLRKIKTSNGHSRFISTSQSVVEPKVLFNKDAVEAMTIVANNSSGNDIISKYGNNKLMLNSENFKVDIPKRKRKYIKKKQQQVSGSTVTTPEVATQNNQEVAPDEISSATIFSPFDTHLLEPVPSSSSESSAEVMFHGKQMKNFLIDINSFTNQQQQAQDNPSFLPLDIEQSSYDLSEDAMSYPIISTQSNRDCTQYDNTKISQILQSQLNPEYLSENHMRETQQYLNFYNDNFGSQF
# Experiment: PBM E-score (8-mer binding enrichment) (E-score (-0.5 to 0.5)); higher = stronger / more preferred TF binding; most listed sequences are background and not binding sites
# Details: protein concentration: 200 nM; construct: GST-full length
# Outline: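 Each ungapped eight-base word and its reverse complement, pooled, received an E-score from the Universal PBM Analysis Suite. Underlying scans, normalised with masliner, recorded fluorescent anti-GST bound to GST-tagged yeast transcription factors. These were applied at about 100-200 nM to universal all-10-mer Agilent arrays double-stranded by primer extension.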
row,Sequence,PBM E-score
1,TGAGATCA,0.0358
2,ACACTGCA,-0.12
3,ACGTTTGG,-0.134
4,ACCGGGGA,-0.205
5,GAGAGGAA,-0.144
6,CGCGTCAG,-0.144
7,ATACTCAT,-0.0632
8,AATCAAAT,0.0218
9,ACCAGAAC,0.0149
10,AGAAAGGA,0.031
11,ATTTAACA,0.165
12,ATGGACAA,0.0579
13,AGGGTATG,-0.182
14,AGGCAGGC,-0.178
15,CCAATTCC,0.0111
16,ATTATCGC,0.195
17,CGGAAAAA,0.13
18,AACTGTGG,-0.116
19,GCGTGTCC,0.0627
20,ACACATGT,-0.0142
21,ATCCGCTA,0.0033
22,CATTCAGA,0.0253
23,GGTTGAAC,-0.141
24,ACCTGGGC,-0.282
25,AAGAATCA,0.107

row,Sequence,PBM E-score
1,CATTAACG,-0.0249
2,CCCCGGGG,-0.156
3,GCACGTGA,0.135
4,AACTTAAC,0.0947
5,ACTACTTG,-0.14
6,ATTTCTAC,-0.0455
7,ATACCGTG,0.165
8,CAATCCCG,0.0775
9,GAAGCACA,0.0238
10,ACCCCGGA,-0.193
11,TGTACACA,0.02
12,GCACTCAA,-0.0729
13,CGCATAAA,0.149
14,ATATCACG,0.0824
15,ATTAAGAC,-0.0306
16,CCTGATTC,-0.117
17,CTGACAAA,-0.0186
18,AAAGGATT,-0.109
19,CAACCACA,0.018
20,AAAGTGCT,0.0147
21,AAAAGGCA,0.359
22,AGCACCGA,0.0493
23,ATACTGGA,0.0791
24,TCCAATAA,0.124
25,AACGTACT,0.105

row,Sequence,PBM E-score
1,CGCCCCGC,0.221
2,ACATAGAC,-0.133
3,GACTGCAA,-0.203
4,ACACATCC,-0.0264
5,ATAGCCTG,-0.192
6,AAGCCCAG,-0.246
7,AAGGCAAT,0.253
8,GGTGTTGA,-0.197
9,CACCTGCG,0.0421
10,ATATTGGC,-0.0622
11,AAGCACCT,-0.0394
12,GCATAAAA,0.165
13,CTCGGCAG,0.117
14,AAGTGCGT,-0.0479
15,CCGGGTGA,-0.0814
16,ATGTGAGC,-0.14
17,TCAGGTCA,-0.127
18,AAGATAGC,-0.138
19,AAGCTTTG,-0.24
20,ACTCGTGA,0.00227
21,AACGTTCG,-0.0547
22,CGTCCCGC,-0.0544
23,ACTTTAAT,0.111
24,ATGCAGTA,0.0835
25,ATCCGCTG,-0.127

row,Sequence,PBM E-score
1,AACTTCCG,-0.125
2,GAAAGAGA,-0.135
3,CTTCTAGA,-0.0372
4,ACCGTCCC,-0.184
5,GTATTCAA,0.187
6,AACAGAAT,-0.0815
7,ACGGAGCG,0.0847
8,ACACTGCT,-0.0685
9,CTCTCCGA,-0.00825
10,GTACCCGA,-0.312
11,CTAAATCA,0.0365
12,AGAAATAG,0.00058
13,GATACACA,-0.0121
14,CATTTTGG,0.114
15,AGGTTCTG,-0.137
16,CCTACATA,-0.12
17,GGGTCTGA,-0.381
18,AGTCGAAA,-0.146
19,GTGGCATA,0.0347
20,GCCCGTCC,-0.18
21,ACTTCTAA,0.0244
22,ACGGTACG,0.0976
23,TACTTGCA,0.0312
24,TGCCAGAA,0.0129
25,GAGAAGAA,-0.0998

row,Sequence,PBM E-score
1,AGCGATTG,-0.0941
2,ACTGAGAG,-0.0514
3,ATATGCCG,0.347
4,AGTAGCTC,-0.252
5,GACAGTCA,-0.127
6,GTAAATAA,0.0833
7,TAGTTTCA,0.107
8,CACAGACG,-0.044
9,AGGACATA,-0.0087
10,GTATCCTA,-0.143
11,GACATAAA,0.16
12,GTCCTGTA,-0.121
13,ACTGGACT,-0.208
14,GGAACTCC,-0.0296
15,TACATGAA,-0.0242
16,CACCTCGG,0.0783
17,CTACGTTA,0.114
18,GTTGTTCA,0.0242
19,TAGTACTA,0.218
20,ACCGCCGG,-0.0408
21,GAATTAAA,-0.0221
22,ATTAGGTC,0.0664
23,AGCACTTA,-0.152
24,GCCTGTGA,-0.193
25,GTCGTCAC,-0.0794

row,Sequence,PBM E-score
1,ACGGTGAA,0.122
2,CTAGATCC,-0.0999
3,CCTAAACC,-0.261
4,CGACACAG,0.153
5,AGCATGCT,-0.322
6,CCCAACAA,0.0569
7,ATTATTAG,0.057
8,GGTCTCAA,-0.0324
9,CTAAACCC,-0.146
10,GGTCGTCA,-0.175
11,AACTACCA,-0.116
12,CACCACGG,-0.12
13,AAGCTTAA,-0.00455
14,GCTCTGCA,-0.182
15,CACATACA,0.114
16,ATTTTGGG,0.163
17,CAAACTTA,0.174
18,CCACGGAG,0.159
19,AAGCTAAG,-0.136
20,TCCAAGAA,-0.018
21,CACCCAGG,-0.168
22,TTCTCAAA,0.256
23,CCAGTTTC,-0.167
24,ATATATTG,-0.0406
25,GAGCTGAA,-0.254

row,Sequence,PBM E-score
1,AATCACGC,0.0793
2,ATTGGGCG,0.0623
3,CTATTTAC,0.0293
4,TCCCGCCA,-0.224
5,GGCTTATA,-0.0671
6,ACCGAGTA,-0.195
7,TATTGCGA,0.165
8,CTGGTATA,-0.172
9,ATACCTAT,-0.0286
10,ATAGAGGG,-0.13
11,ACTTCTCC,-0.269
12,ACTAAGAT,0.163
13,TGGTAAAA,0.15
14,GCGAGTGA,0.11
15,AACATCAA,0.101
16,CGTAGGTC,-0.356
17,AATGCAAG,0.0552
18,CGTCTCAC,0.0579
19,CGAGAGAC,-0.178
20,CAATCCGC,0.0215
21,GAGTCTGA,-0.206
22,ATTTGTAC,-0.035
